Source: PubChem BioAssay (NCI)
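Results reflect a 48-hour exposure of cells in 96-well plates to compound at five concentrations. Here, GI50 denotes the concentration required for 50% inhibition of growth. TGI: concentration producing complete growth inhibition.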

System: NCI-H322M lung
Experiment: NCI anticancer screen, dose series, 48 h

Row | SMILES | GI50 [µM] | TGI [µM]
1 | CNC(=O)c1cccc(NC(=O)c2ccc3c(c2)nnn3/C(C#N)=C/c2ccccn2)c1 | 19.4 | 47.6
2 | CC[C@]12C=CCN3CC[C@@]4(c5ccc(OC)cc5N(C)[C@H]4[C@@](O)(C(=O)OC)[C@@H]1OC(=O)CCC[P+](c1ccc(C)cc1)(c1ccc(C)cc1)c1ccc(C)cc1)[C@@H]32 | 0.649 | 1.95
3 | C=C1CC[C@@H]2[C@]3(C)COC(c4cn(-c5ccccc5)nc4-c4ccccc4)O[C@@H]3CC[C@@]2(C)[C@@H]1C/C=C1/C(=O)OC[C@H]1O (stereo partly drawn) | 3.35 | 14
4 | CC(C)c1sc(NC(=O)c2cc(NC(=O)c3cc(NC(=O)c4cscn4)cn3C)cn2C)nc1C(=O)NCCCN(C)C | 3.66 | 15.4
